Experimental data reported in the antibiotic and cytotoxicity screens of Wong et al. (2023).
The list shows a part of the results.

system: S. aureus RN4220; test: growth inhibition call (relative growth <= 0.2); settings: 50 µM

Growth inhibition call, inactive:
C[C@@H]1CN([C@@H](C)CO)C(=O)c2cc(NC(=O)Nc3ccc(F)cc3)ccc2O[C@@H](C)CCCCO[C@H]1CN(C)C(=O)c1ccccc1, C[C@@H]1CCCCO[C@@H](CN(C)Cc2ccc3c(c2)OCO3)[C@@H](C)CN([C@@H](C)CO)C(=O)c2cc(NS(=O)(=O)c3ccccc3)ccc2O1, C#CCN([C@H](/C=C/C1CC1)[C@@H](O)Cc1ccccc1)[C@@H](Cc1ccc(-n2cc(C(=O)NO)nn2)cc1)C(=O)OC, O=C(O)c1ccc(O)c(C(=O)O)c1, C[C@@H]1CN([C@@H](C)CO)C(=O)c2cccc(NS(=O)(=O)c3ccc(Cl)cc3)c2O[C@H]1CN(C)S(=O)(=O)c1cn(C)cn1, C[C@@H]1CN([C@@H](C)CO)C(=O)c2cc(NC(=O)CCC(F)(F)F)ccc2O[C@@H]1CN(C)S(C)(=O)=O
